Compound in this assay: COc1ncc(-c2ccc3nccc(-c4ccnnc4)c3c2)cc1NS(=O)(=O)c1ccc(F)cc1F [GSK2126458]
Briefly: Viability of human cancer cell lines after 72 h of drug (GDSC screen). Conditions: top dose inferred. Here is the method: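 Human cancer cell lines in 384-well plates, medium with 10% serum, drug for 72 h over a 256-fold dose range (nine 2-fold or five 4-fold steps up to the top dose). Adherent lines were fixed and stained with the nucleic acid dye Syto60, suspension lines read with resazurin; signal relative to control wells, capped at 0 and 100%. One two-parameter sigmoid per drug and line, fitted in a mixed model over all curves with the slope shared within a line.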

By IC50 is meant the dose at which the fit gives 50% viability; fits outside the tested doses are given as limits. AUC sums up the same curve from the lowest dose to the 256-fold higher top dose; values near 1 show little effect. An inferred top dose was derived from the fitted curves, not read from the paper.

“BE-13 (lymphoblastic leukaemia, suspension, top dose 0.128 µM)”: the AUC came out at 0.864 and the IC50 came out at 100 nM.

“BEN (non-small cell lung carcinoma, adherent, top dose 0.128 µM)”: the AUC amounted to 0.805 and the IC50 was 76.2 nM.

Turning to “BFTC-905 (bladder, adherent, top dose 0.128 µM)”, the AUC is 0.677 and the concentration for half-maximal inhibition (IC50) was 23 nM.

On to “BFTC-909 (kidney, adherent, top dose 0.128 µM)”, for which the AUC was found to be 0.964 and the IC50 was above 128 nM.

Turning to “BHT-101 (thyroid, adherent, top dose 0.128 µM)”, the AUC was found to be 0.839 and the half-inhibitory concentration (IC50) turned out to be 90.9 nM.

With “BHY (head and neck, adherent, top dose 0.128 µM)”, the AUC worked out at 0.636 and the IC50 was 19.1 nM.

For “BICR10 (head and neck, adherent, top dose 0.128 µM)”, the AUC is 0.934 and the half-maximal inhibitory concentration (IC50) was above 128 nM.

For the cell line “BICR22 (head and neck, adherent, top dose 0.128 µM)”, the AUC came to 0.487 and the IC50 was 7.34 nM.

Consider “BICR31 (head and neck, adherent, top dose 0.128 µM)”, for which the AUC is 0.776 and the IC50 was determined as 51.7 nM.

Regarding “BICR78 (head and neck, adherent, top dose 0.128 µM)”, the AUC came to 0.873 and the IC50 was above 128 nM.

Turning to “BL-41 (Burkitt lymphoma, suspension, top dose 0.128 µM)”, the AUC stood at 0.22 and the IC50 is 1.58 nM.

As to “BPH-1 (prostate, adherent, top dose 0.128 µM)”, the AUC was 0.409 and the IC50 came to 4.37 nM.

On to “BT-20 (breast, adherent, top dose 0.128 µM)”, for which the AUC was 0.628 and the IC50 amounted to 19.7 nM.

For “BT-483 (breast, adherent, top dose 1.024 µM)”, the AUC is 0.503 and the IC50 was 65.7 nM.

Take “BV-173 (chronic myeloid leukaemia, suspension, top dose 0.128 µM)”: the AUC was determined as 0.758 and the IC50 was 39.7 nM.

For “Becker (glioma, adherent, top dose 0.128 µM)”, the AUC is 0.591 and the IC50 is 14.7 nM.

Turning to “BxPC-3 (pancreas, adherent, top dose 0.128 µM)”, the AUC came out at 0.799 and the 50% inhibitory concentration (IC50) was determined as 70.3 nM.

As to “C2BBe1 (large intestine, adherent, top dose 0.128 µM)”, the AUC worked out at 0.572 and the IC50 was 12.9 nM.

As for “C3A (liver, adherent, top dose 0.128 µM)”, the AUC turned out to be 0.988 and the IC50 is above 128 nM.

“C32 (melanoma, adherent, top dose 0.128 µM)”: the AUC worked out at 0.934 and the IC50 was above 128 nM.

On to “C-4-I (cervix, adherent, top dose 0.128 µM)”, for which the AUC amounted to 0.972 and the IC50 is above 128 nM.

“C-33-A (cervix, adherent, top dose 0.128 µM)”: the AUC came to 0.836 and the concentration for half-maximal inhibition (IC50) was 85.3 nM.

Regarding “CA46 (Burkitt lymphoma, suspension, top dose 0.128 µM)”, the AUC was 0.434 and the IC50 amounted to 5.22 nM.

As for “CADO-ES1 (Ewing sarcoma, suspension, top dose 0.128 µM)”, the AUC came out at 0.623 and the IC50 came out at 17.5 nM.

For the cell line “CAKI-1 (kidney, adherent, top dose 0.128 µM)”, the AUC is 0.707 and the IC50 was found to be 41.4 nM.

For the cell line “CAL-12T (non-small cell lung carcinoma, adherent, top dose 0.128 µM)”, the AUC was 0.48 and the IC50 came out at 7 nM.

Regarding “CAL-27 (head and neck, adherent, top dose 0.128 µM)”, the AUC was 0.815 and the IC50 was determined as 71.7 nM.

Consider “CAL-29 (bladder, adherent, top dose 0.128 µM)”, for which the AUC is 0.588 and the IC50 came to 14.2 nM.

With “CAL-33 (head and neck, adherent, top dose 0.128 µM)”, the AUC was 0.423 and the IC50 stood at 4.94 nM.

In the case of “CAL-39 (cervix, adherent, top dose 0.128 µM)”, the AUC worked out at 0.91 and the IC50 was above 128 nM.

Turning to “CAL-51 (breast, adherent, top dose 0.128 µM)”, the AUC is 0.878 and the IC50 came out at 99.8 nM.

For “CAL-54 (kidney, adherent, top dose 0.128 µM)”, the AUC is 0.936 and the IC50 is above 128 nM.

Consider “CAL-62 (thyroid, adherent, top dose 0.128 µM)”, for which the AUC was determined as 0.899 and the 50% inhibitory concentration (IC50) is above 128 nM.

As for “CAL-72 (osteosarcoma, adherent, top dose 0.128 µM)”, the AUC came out at 0.984 and the IC50 is above 128 nM.

For the cell line “CAL-78 (chondrosarcoma, adherent, top dose 0.128 µM)”, the AUC was determined as 0.985 and the half-maximal inhibitory concentration (IC50) is above 128 nM.

For “CAL-85-1 (breast, adherent, top dose 0.128 µM)”, the AUC came to 0.7 and the IC50 was 34.6 nM.

Turning to “CAL-120 (breast, adherent, top dose 0.128 µM)”, the AUC was determined as 0.64 and the IC50 stood at 21.9 nM.

Turning to “CAL-148 (breast, suspension, top dose 0.128 µM)”, the AUC was found to be 0.821 and the IC50 was 67 nM.

“CAMA-1 (breast, adherent, top dose 0.128 µM)”: the AUC was determined as 0.777 and the IC50 amounted to 65.4 nM.

As for “CAPAN-1 (pancreas, adherent, top dose 0.128 µM)”, the AUC was found to be 0.651 and the IC50 was 22 nM.

For the cell line “CAS-1 (glioma, adherent, top dose 0.128 µM)”, the AUC is 0.686 and the IC50 came to 32.3 nM.

For the cell line “CCF-STTG1 (glioma, adherent, top dose 0.128 µM)”, the AUC was 0.49 and the IC50 was found to be 7.5 nM.

For “CCK-81 (large intestine, adherent, top dose 1.024 µM)”, the AUC was determined as 0.406 and the IC50 stood at 35.9 nM.

For the cell line “CCRF-CEM (lymphoblastic leukaemia, suspension, top dose 0.128 µM)”, the AUC was determined as 0.433 and the IC50 stood at 5.41 nM.

Turning to “CESS (acute myeloid leukaemia, suspension, top dose 0.128 µM)”, the AUC was found to be 0.323 and the IC50 was found to be 2.79 nM.

As to “CFPAC-1 (pancreas, adherent, top dose 0.128 µM)”, the AUC was 0.846 and the half-inhibitory concentration (IC50) was 114 nM.

For the cell line “CGTH-W-1 (thyroid, adherent, top dose 0.128 µM)”, the AUC is 0.55 and the IC50 amounted to 10.9 nM.

Turning to “CHL-1 (melanoma, adherent, top dose 0.128 µM)”, the AUC turned out to be 0.52 and the IC50 was found to be 9.03 nM.

As to “CHP-126 (neuroblastoma, suspension, top dose 0.128 µM)”, the AUC was found to be 0.911 and the IC50 was above 128 nM.

As to “CHP-134 (neuroblastoma, suspension, top dose 0.128 µM)”, the AUC was found to be 0.86 and the IC50 was above 128 nM.

For “CHP-212 (neuroblastoma, adherent, top dose 0.128 µM)”, the AUC was 0.904 and the IC50 is above 128 nM.

On to “CHSA0011 (chondrosarcoma, adherent, top dose 0.128 µM)”, for which the AUC stood at 0.865 and the half-maximal inhibitory concentration (IC50) was above 128 nM.

On to “CHSA0108 (chondrosarcoma, adherent, top dose 0.128 µM)”, for which the AUC amounted to 0.934 and the IC50 was above 128 nM.

“CHSA8926 (chondrosarcoma, adherent, top dose 0.128 µM)”: the AUC is 0.934 and the IC50 is above 128 nM.

Consider “CL-11 (large intestine, adherent, top dose 0.128 µM)”, for which the AUC was determined as 0.965 and the IC50 is above 128 nM.

On to “CMK (acute myeloid leukaemia, suspension, top dose 0.128 µM)”, for which the AUC was 0.342 and the half-inhibitory concentration (IC50) stood at 3.14 nM.

Turning to “COLO-205 (large intestine, suspension, top dose 0.128 µM)”, the AUC amounted to 0.781 and the IC50 was determined as 52.4 nM.

In the case of “COLO-320-HSR (large intestine, suspension, top dose 0.128 µM)”, the AUC was found to be 0.834 and the IC50 worked out at 68.3 nM.

On to “COLO-668 (small cell lung carcinoma, adherent, top dose 0.128 µM)”, for which the AUC worked out at 0.701 and the IC50 was determined as 29.4 nM.

For the cell line “COLO-678 (large intestine, semi-adherent, top dose 0.128 µM)”, the AUC was determined as 0.948 and the IC50 is above 128 nM.

With “COLO-679 (melanoma, adherent, top dose 0.128 µM)”, the AUC was found to be 0.845 and the half-inhibitory concentration (IC50) was determined as 109 nM.

Turning to “COLO-680N (oesophagus, adherent, top dose 0.128 µM)”, the AUC was determined as 0.868 and the IC50 is above 128 nM.

Turning to “COLO-684 (endometrium, suspension, top dose 0.128 µM)”, the AUC worked out at 0.356 and the IC50 turned out to be 3.03 nM.

For the cell line “COLO-783 (melanoma, adherent, top dose 0.128 µM)”, the AUC turned out to be 0.964 and the IC50 was above 128 nM.

Regarding “COLO-792 (melanoma, adherent, top dose 0.128 µM)”, the AUC stood at 0.618 and the IC50 amounted to 16.9 nM.
